The results in this text go back to the supplement of paper PMC4166925.

± gives the standard deviation of the averaged measurements. The full ranking holds about 33,000 sequences; the median of “E-score (dimensionless, -0.5 to 0.5)” is about -0.046, and the highest 2% start at about 0.36. The list shows a part of the results.

In this assay the test system is T1, SpTbr T-box DNA-binding domain (GST fusion).
T1 sequence: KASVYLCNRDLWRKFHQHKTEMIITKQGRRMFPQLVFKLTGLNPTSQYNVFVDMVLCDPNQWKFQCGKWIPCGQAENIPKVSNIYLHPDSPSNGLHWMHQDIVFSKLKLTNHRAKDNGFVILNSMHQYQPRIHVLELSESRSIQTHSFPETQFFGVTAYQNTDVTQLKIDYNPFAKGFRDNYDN
The experiment in a line: PBM E-score of 8-mer (E-score (dimensionless, -0.5 to 0.5)); Tbr is Tbrain of the sea star Patiria miniata (Pm) or the sea urchin Strongylocentrotus purpuratus (Sp); higher = stronger binding preference; most listed sequences are background and not binding sites. Conditions: the construct has about 5 more residues each side. The essentials: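 GST-fused Tbr T-box DNA-binding domains (the whole T-box plus about five flanking residues) were expressed in BL21 E. coli at 20 °C and purified by glutathione affinity chromatography. Universal Agilent oligonucleotide arrays were made double-stranded by primer extension, incubated with 200 nM protein in PBS (pH 7.5), then scanned and quantified. Every ungapped 8-mer was scored from probe intensities. The Universal PBM Analysis Suite gave each word an enrichment E-score, averaged over duplicate arrays.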
For the sequence CCCAAACC, the “PBM E-score of 8-mer” value was -0.37 ± 0.025.
The value for CAATAATA was -0.0063 ± 0.022; that for AAGTGGAA was -0.0162 ± 0.013.
The value for CAGCCTTA was -0.0359 ± 0.087; that for CGAACCTC was 0.0575 ± 0.03; that for ACTGGGCC was -0.262 ± 0.072.
Then AACGGTGC, with 0.239 ± 0.047.
AGCACCGC: the “PBM E-score of 8-mer” value is -0.0167 ± 0.064.
Turning to AGCTGAAG, the “PBM E-score of 8-mer” value is -0.206 ± 0.042.
Turning to TCATTCAA, the “PBM E-score of 8-mer” value was -0.246 ± 0.0059.
As for GGAGTGAA, the “PBM E-score of 8-mer” value turned out to be 0.248 ± 0.026.
As for GTGTCGGA, the “PBM E-score of 8-mer” value stood at 0.359 ± 0.00047.
Then TAGAAGCA, with -0.0879 ± 0.037; and AGGTGTTG, with 0.482 ± 0.0055; and AACCATAA, with -0.12 ± 0.028.
The value for ACCGCACC was 0.199 ± 0.0058; that for CTGAGGGA was -0.0861 ± 0.029.
The value for GCAGTTTA was 0.0494 ± 0.037; that for GTACGCAA was -0.222 ± 0.032; that for CCCGGCAC was 0.14 ± 0.021.
For CCCAAGTA, the “PBM E-score of 8-mer” value is -0.0628 ± 0.047.
The value for CTAGCAGA was -0.0918 ± 0.062; that for AATCAAGG was -0.146 ± 0.052.
On to GGGACCTA, for which the “PBM E-score of 8-mer” value was -0.11 ± 0.03.
The value for CGCACACG was 0.211 ± 0.061; that for AGAGTCTA was -0.104 ± 0.066.
The value for ATTTAAAA was -0.123 ± 0.031.
The value for GTCAAGAA was -0.0862 ± 0.13.
Regarding ATTGTGAC, the “PBM E-score of 8-mer” value came out at 0.167 ± 0.017.
Then CGCTACGA, with -0.0527 ± 0.027; and CGTGCCCC, with -0.303 ± 0.033; and CACAGGAG, with -0.0284 ± 0.0074.
The value for CTCGAACC was -0.115 ± 0.043; that for CTGTGTGC was 0.000685 ± 0.012.
As to TAACAGTA, the “PBM E-score of 8-mer” value was found to be 0.158 ± 0.025.
Consider ACAGTCAA, for which the “PBM E-score of 8-mer” value worked out at 0.109 ± 0.023.
Then ACGTTACT, with -0.111 ± 0.012; and CATTGTCG, with 0.038 ± 0.0095.
Then AACACAAA, with 0.0449 ± 0.075.
Then TCAAAGCA, with -0.0504 ± 0.042; and GCGAGCTA, with 0.164 ± 0.0096.
Regarding AGAGTAAA, the “PBM E-score of 8-mer” value was -0.0882 ± 0.073.
Then ATAGTAAC, with 0.0143 ± 0.031; and GGACGCAA, with 0.0148 ± 0.078; and ATGCGTCC, with -0.0633 ± 0.0099.
Then ATAGTTCG, with 0.113 ± 0.038; and CTGTGAAA, with 0.396 ± 0.017.
In the case of CAGGCTAG, the “PBM E-score of 8-mer” value was -0.0398 ± 0.0067.
Then ACGCACGA, with -0.0484 ± 0.054; and CGTGTCAG, with 0.25651 ± 0.00017; and AAATTCCT, with -0.168 ± 0.076.
The value for CCTCCAGC was -0.0602 ± 0.0064.
Then ATATACAT, with -0.135 ± 0.057; and GAAACTAC, with -0.0901 ± 0.0029; and CATTGTAG, with -0.0184 ± 0.0066.
Turning to CTTGTTCC, the “PBM E-score of 8-mer” value was -0.114 ± 0.067.
Then ATTGTTTA, with 0.0521 ± 0.14; and GAACACTA, with 0.013 ± 0.018; and AGGTATTG, with 0.00318 ± 0.078.
The value for ACGACCTC was 0.038 ± 0.0053; that for GCACAGAA was -0.123 ± 0.043.
Regarding AGACGATC, the “PBM E-score of 8-mer” value is -0.129 ± 0.039.
Then ACTGGGAC, with -0.299 ± 0.018.
Then CCGGAGTA, with -0.0192 ± 0.0016; and CATACCAA, with -0.0982 ± 0.029.
The value for CTGCGTTC was -0.226 ± 0.01.
With GCACAGCA, the “PBM E-score of 8-mer” value worked out at 0.0886 ± 0.048.
The value for AACAACGT was 0.00981 ± 0.00099.
Consider CCCGCGGG, for which the “PBM E-score of 8-mer” value came to 0.0848 ± 0.048.
The value for ATCGTCTG was -0.0889 ± 0.032; that for GGACCGTA was -0.169 ± 0.014.
The value for ACGTGCCA was 0.361 ± 0.033.
The value for GGCGGCCA was -0.156 ± 0.03; that for TATACTAA was -0.203 ± 0.029; that for ATATTCGG was -0.222 ± 0.048.
For ATTTACGC, the “PBM E-score of 8-mer” value was 0.058 ± 0.12.
The value for GCTTGCTA was -0.156 ± 0.02; that for AGTTGAGA was 0.144 ± 0.083; that for GGCGCCAA was 0.36 ± 0.038.
Regarding CGTCAGTC, the “PBM E-score of 8-mer” value is -0.0269 ± 0.03.
Consider AAGTTTCA, for which the “PBM E-score of 8-mer” value is -0.0887 ± 0.0065.
Then CGCACACA, with 0.285 ± 0.0053; and ACTATATA, with 0.0257 ± 0.031.
CCCGACCC: the “PBM E-score of 8-mer” value was -0.272 ± 0.033.
Take ACCGAGTC: the “PBM E-score of 8-mer” value is -0.115 ± 0.05.
Then ACCGACAG, with 0.124 ± 0.034; and CTGATAAA, with -0.156 ± 0.15; and AGGCCCAG, with -0.26 ± 0.049.
The value for GATAGCCA was -0.19 ± 0.028.
Take CATGCTAC: the “PBM E-score of 8-mer” value was -0.0996 ± 0.03.
The value for CCGTGCTC was -0.2658 ± 0.0026.
The value for CCTCGTCC was -0.186 ± 0.05; that for CCTCTGAA was -0.242 ± 0.01.
The value for GGTATGAC was -0.0529 ± 0.084.
